Reference: the RNAGym collection of RNA variant scans (doi:10.1093/nar/gkz1192)
Read counts are not given, so values of variants with three or more changes are uncertain.

B1: CPEB3 Ribozyme (parent)
chain: UAACAGGGGGCCACAGCAGAAGCGUUCACGUCGCAGCCCCUGUCAGAUUCUGGUGAAUCUGCGAAUUCUGCUGUAUAUCUC

Variants of: B1
Test: self-cleavage, relative activity (ratio to wild type); higher = more cleavage; in vitro, sequencing
Summary of the method: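 For each CPEB3 ribozyme variant, relative activity is its cleaved/total read fraction divided by the unmutated ribozyme's. Barcoded error-prone PCR libraries were transcribed by T7 RNA polymerase (5 hours, 37°C) and held in DNase I for 15 min before an EDTA stop, with cleavage occurring throughout. Template-switching reverse transcription and Illumina sequencing were used to read the RNAs. A 5-read minimum applied, and results are the mean of three batches.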
Variant UAACUGGGGGCCGCAGCAGAAGCGCUCACGUCGCAGCCCCUGUCAGAUUCUGGUGAAUCUGCGAAUUCUGCUGUAUGUCUC has a self-cleavage of 0.51. UAACUGGGGGCCACAGCGGAAGCGUUCGCGGCGCAGCCCCUGUCAGAUUCUGGUGAAUCUGCGAAUUCUGCUGUAUAUCUC showed a self-cleavage of 0.17. Variant UAACUGGGGGCCACAGCGGAAGCGUUCACGCCGUAGCCCCUGUCAGAUUCUGGUGAAUCUGCGUAUUCUGCUGUAUAUCUC has a self-cleavage of 0.07. For UAACUGGGGGCCACAGCGGAAGCGUUCACGUCGCAGCCCCUGCCAGAUUCUGGUGAAUCUGCGAAUCCUGCUGUAUAUCUC, the self-cleavage was 0.12. Work on UAACGGGGGGCCACAGCAGAAGCGUUCACGUCGCAGCCCCUGUCAGAUUCUGGUGAAUCUGCGAAGUCUGCUGUUUAUCUC yielded a self-cleavage of 0.2. Work on UAACUGGGGGCCACAGCUGAAGCGUUCACGUCGCAGCCCCUGACAGAUUCUGGUGAAUCUGCGAAUUCUGCUGUAUAUCUC yielded a self-cleavage of 0.78. UAACUGGGGGCCACAGCUGAAGCGUUCACGUCGCAGCCCCUGCCAGAUUCUGGUGAAUCUGCGAAUUCUGCUGUAUAUCUC showed a self-cleavage of 0.3. For UAACGGGGGGCCACAGCAGAAGCGUUCACGUCGCAGCCCCUGUCAGAUUCUGGUGAAUCUGCGAACUCUGCUGUAUAUCGC, the self-cleavage was 0.27. UAACUGGGGGCCACGGCAGAAGCGUUCACGUCGCAGCCCCUGUCAGAUUCUGGAGAGUCUGCGAAUUCUGCUGUAUAACCC gave a self-cleavage of 0.64. UAACUGGGGGCCUCGGCAGAAGCGCUCACGUCGCAGCCCCUGUCAGAUUCUGGUGAAUCUGCGAAUUCUGCUGUAUAUCUC gave a self-cleavage of 0.1. UAACUGGGGGCCGCAGCAGAAGCGUUCACGCCGCUGCCCUUGUCAGAUUCUGGAGAAUCUGCGAAUUCUGCUGUAUAACUC gave a self-cleavage of 0.12. In the case of UAACUGGGGGCCGCAGCAGAAGCGUUCACGACGCGGACCUUGUCAGAUUCUGGUGAAUCUGCGAGUUCUGCUGUAUAUCUC, the self-cleavage is reported as 0.12. In the case of UAACUGGGGGCCACGGCAGAAGCGUUCACGUCGCAGCCCCUGUCAGGUUCUGGUGAAUCUGCGAAUUCUGCUGUAUACCUC, the self-cleavage is reported as 1.02. UAACGGGGGGCCACAGCAGAAGCGUUCACGUCGCAGCCCCUGUCAGAUUCUGGUGAAACCGCGAAUUCUGCUGUAUACCUC showed a self-cleavage of 0.1. With UAACGGGGGGCCACAGCAGAAGCGUUCACGUCGCAGCCCCUGUCAGAUUCUGGUGAAUCUGCGAACUCUGCUGUAUGUCUC the self-cleavage was 0.15. In the case of UAACUGGGGGCCACAGCGGAAGCGUUCACGUCGCAGCCCCUGUCAGAGUCUGGUGAAUCUGCGAAUUCUGCUGUAUAUCUC, the self-cleavage is reported as 0.22. Variant UAACUGGGGGCCGCAGCAGAAGCGUUCUCGUCGCAGCCCCCGUCGGAUUCUGGUGAUUCUGCGAAUUCCGCUGUAUAUCUC has a self-cleavage of 0.13. Work on UAACUGGGGGCCCCAGCAGAAGCGUUCUCGUCGCAGCCCCUGUCAGAUUCUGGUGAAUCUGCGAAUUCUGCUGUAUGUCUC yielded a self-cleavage of 1.19. Work on UAACUGGGGGCCACGGCAGAAGCGUUCACAUCGCAGCCCCUGUCAGAUUCUGGUGAAUCUGCGAAUUCUGCUGGAUAUCUC yielded a self-cleavage of 0.18. With UAACUGGGGGCCACGGCAGAAGCGUUCACGUCGCAGCCCCUGUCAGAUUCUGGUGAAUAUGCGAAUUCUGCUGUAUAUCUC the self-cleavage was 0.31. With UAACUGGGGGCCGCAGCAGAAGCGUCCACGUCGCAGCCCCUGUCAGGUUCUGGUGAAUCUGUGAAUUCUGCUGUAUAUCUC the self-cleavage was 0.27. For UAACGGGGGGCCACAGCAGAAGCGUUCACGUCGCAGCCCCUGUCAGAUUCUGGUGAAUCUGCGAAUUCCCCUGUAUACCUC, the self-cleavage was 0.17. Work on UAACUGGGGGCCACAGCGGAAGCGUUCACGUCGCGGCCCCUGUCAGAUUCUGGUGAAUCUGCGAAUUCUGCUGUAUAUCUC yielded a self-cleavage of 1.18. In the case of UAACUGGGGGCCACAGCGGAAGCGCUCACGUCGCAGCCCCUGUCAGAUUCUGGUGAAUCUGCGAAUUCUGCUGUAUAUCUC, the self-cleavage is reported as 0.35. For UAACUGGGGGCCUCAGCAGAAGCGAUCACGCCGCAGCCCCUGUCAGAUUCUGGUGAAUCUGCGAAUUCCGCUGUAUAUCUC, the self-cleavage was 0.17. In the case of UAACGGGGGGCCACAGCAGAAGCGUUCACGUCGCAGCCCCUGUCAGAUUCUGGUGAAUCUGCGAAUUCAGCUGUACAUCUC, the self-cleavage is reported as 0.49. UAACUGGGGGCCACGGCAGAAGCGUUCACGUCGCAGCCCCUGUCAGAUUCUGGUGAGUCUGCGGAUUCUGCUGUAUAUCUC showed a self-cleavage of 0.75. For UAACGGGGGGCCACAGCAGAAGCGUUCACGUCGCAGCCCCUGUCAGAUUCUGGUGAAUCUGCGAAUACUGCUGUACAUCCC, the self-cleavage was 0.11. Variant UAACUGGGGGCCACAGCGGAAGCGUUCACGUCGCAGCCCCUGUCGGAUUCUGGUGAAUCUGCGAAUUCUGCUGUAAAUCUC has a self-cleavage of 0.3. In the case of UAACUGGGGGCCUCAGCAGAAGCGUUCACGCCGCAGCCCCUGUCAGAUUCUGGUGAAACAGCGAAUUCUGCUGUAUAUCUC, the self-cleavage is reported as 0.14. UAACUGGGGGCCUCAGCAGAAGCGUUCACGUCACAGCCCCUGUCAGACUCUGGUGAAUCUACGAAUUCUGCCGUAUAUCUC gave a self-cleavage of 0.08. For UAACUGGGGGCCACAGCGGAAGCGUUCACGUCGCAGCCCCUGUCGGAUUCUGGUGAAUCUACGAAUUCUGCUGUAUACCUC, the self-cleavage was 0.29. With UAACUGGGGGCCACGGCAGAAGCGCUCACGUCGCUGCCCGUGACAGAUUCUGGUGAAUCUGCGAAUUCCGCUGUAUAUCUC the self-cleavage was 0.24. Work on UAACUGGGGGCCGCAGCAGAGGCGUUCGCGUCGCAGCCCCUGUCAGAUUCUGGUGAAUCUGCGAAUUCUGCUGUAUAUCUC yielded a self-cleavage of 0.29.
